Experimental data: paper PMC4336329 (PLoS ONE, 2015)
The campaign covered roughly 310,000 compounds. About 14,000 (4.5%) showed an effect of 50% or more. The effect is printed as a negative number. This is one part of the list.

Each compound was assayed against human ether-à-go-go-related gene (hERG) potassium channel (human, UniProt Q12809) (assay: primary screen, population patch clamp on CHO cells stably expressing hERG).
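Also: peak tail current of the secondary pulse compared with the same well before compound.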

Sequence of human ether-à-go-go-related gene (hERG) potassium channel (Q12809 whole entry, looked up): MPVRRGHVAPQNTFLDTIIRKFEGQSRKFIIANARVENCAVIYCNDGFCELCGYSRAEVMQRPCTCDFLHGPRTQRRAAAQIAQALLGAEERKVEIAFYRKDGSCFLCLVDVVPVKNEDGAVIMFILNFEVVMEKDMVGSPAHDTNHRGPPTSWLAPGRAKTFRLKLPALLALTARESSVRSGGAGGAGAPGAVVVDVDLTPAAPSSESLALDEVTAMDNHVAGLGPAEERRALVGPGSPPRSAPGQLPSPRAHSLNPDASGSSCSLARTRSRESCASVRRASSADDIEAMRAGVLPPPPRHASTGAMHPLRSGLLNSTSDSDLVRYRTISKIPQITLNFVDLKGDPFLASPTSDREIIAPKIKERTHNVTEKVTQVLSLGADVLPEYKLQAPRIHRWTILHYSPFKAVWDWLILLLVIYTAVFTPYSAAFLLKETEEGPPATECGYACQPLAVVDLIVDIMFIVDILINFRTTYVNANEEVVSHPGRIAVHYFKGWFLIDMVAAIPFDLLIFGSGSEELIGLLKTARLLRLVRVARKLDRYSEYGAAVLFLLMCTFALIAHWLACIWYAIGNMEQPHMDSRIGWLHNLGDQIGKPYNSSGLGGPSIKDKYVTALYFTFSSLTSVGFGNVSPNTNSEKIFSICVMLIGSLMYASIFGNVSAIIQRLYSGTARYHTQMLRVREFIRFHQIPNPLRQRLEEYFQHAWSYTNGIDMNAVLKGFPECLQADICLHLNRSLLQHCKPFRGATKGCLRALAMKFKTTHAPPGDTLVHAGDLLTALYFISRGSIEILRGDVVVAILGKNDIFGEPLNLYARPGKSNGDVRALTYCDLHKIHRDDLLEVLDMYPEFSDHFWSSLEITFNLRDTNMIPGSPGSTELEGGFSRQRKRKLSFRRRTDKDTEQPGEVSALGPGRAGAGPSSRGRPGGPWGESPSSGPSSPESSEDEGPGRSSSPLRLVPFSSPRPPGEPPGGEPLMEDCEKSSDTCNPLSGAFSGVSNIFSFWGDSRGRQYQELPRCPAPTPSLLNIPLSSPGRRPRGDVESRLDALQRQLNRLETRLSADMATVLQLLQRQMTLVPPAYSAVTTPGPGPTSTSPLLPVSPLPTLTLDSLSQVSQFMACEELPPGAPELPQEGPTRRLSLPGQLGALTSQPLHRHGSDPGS

Point of comparison: `CC(NCc1ccc2c(c1)OCO2)C(=O)NC1CCCc2ccccc21.O=C(O)C(=O)O` (stereo not drawn), “hERG current change (%, negative = inhibition) at 10uM” value -22.6%. Against it:
- COc1ccc(OCC(=O)N2CCN(c3cccc(Cl)c3)CC2)cc1 — lower, -29.7%
- Cc1cccn2c(NCc3ccc4c(c3)OCO4)c(-c3ccc(O)cc3)nc12 — the same, -22.6%
- CCn1c(SCC(=O)NCc2ccccc2)nnc1-c1c[nH]c2ccccc12 — lower, -25.2%
- O=C(c1cc2ccccc2cc1O)N1CCCC(C(F)(F)F)C1 (stereo not drawn) — higher, -1.59%
- Cn1cc(CN2CCCC(C(=O)c3cccs3)C2)c(-c2cccc(Cl)c2)n1 (stereo not drawn) — lower, -39.2%
- COC(=O)N1C(=O)[C@@](c2ccc(OC)cc2)(C(C)C)N1C(=O)OC — higher, 14.5%
- CC(Sc1nc2c(c(=O)[nH]1)CCCC2)C(=O)Nc1ccc(S(N)(=O)=O)cc1 (stereo not drawn) — higher, 16.4%
- CCOc1ccc(OCCN2C(=O)NC(Cc3c[nH]c4ccccc34)C2=O)cc1 (stereo not drawn) — higher, -11.5%
- Cc1ccc(C)c(N(CC(=O)NC2CCCC2)C(=O)CCC(=O)Nc2nccs2)c1 — higher, -16.8%
- O=C(O)c1cccc2c1C(=O)c1ccc(-c3ccc(F)cc3F)cc1S2(=O)=O — higher, 13.8%
- Cc1cc2nc3c(nc2cc1C)C1(C(=O)N(C)C)CCC3(C)C1(C)C (stereo not drawn) — higher, -2.51%
- O=C(CN1CCCCCCC1)N/N=C/c1ccc(F)cc1F — lower, -43.3%
- C[C@@H](C(=O)CC(=O)OC(C)(C)C)[C@@H](O)c1c(F)cccc1Cl — higher, 12.2%
- CCN1CCN(C(=O)C(C)Oc2ccc(S(=O)(=O)N3CCCC3)cc2C(N)=O)CC1 (stereo not drawn) — lower, -27%
- COc1ccc(CNC(=O)CSc2nnc(-c3ccc(NC(C)=O)cc3)n2C)cc1 — higher, -0.285%
- CCOc1ccc(NC(C)=O)cc1N — higher, 9.48%
- CCC(C)Sc1nc2c(c(=O)[nH]c(=O)n2C)n1Cc1ccccc1Cl (stereo not drawn) — higher, 12%
- C=CCNC(=O)c1ccccc1NC(=O)COc1ccc(OC)cc1 — higher, 18.4%
- Cc1cc(C)nc(NC(=O)/C=C/c2cccs2)c1 — higher, -5.84%
- Cc1cc(C)nc(NC(=O)c2cc3ccccc3o2)n1 — higher, 6.65%
- CC(=O)N(Cc1cc(=O)[nH]c2ccccc12)c1ccccc1C — higher, 17.1%
- CSc1nc2ccc(NC(=O)c3ccco3)cc2s1 — lower, -34%
- Cc1cc(C)cc(NC(=O)CN2C(=O)c3ccccc3C2=O)c1 — higher, 13.3%
- Cc1ccnc2nc(NC(=O)c3ccco3)nn12 — higher, 15.4%
- On1nnc2c3ccccc3c3ccccc3c21 — higher, 23.9%
- COc1ccccc1NC(=O)Nc1nc(CC(=O)NCc2c(F)cccc2F)cs1 — higher, 14.5%
- CCN(CC)CCNC(=O)C1CCC(=O)N1CCc1ccccc1 (stereo not drawn) — higher, 0.312%
- COc1ccc(Cc2nc3ccc(C(=O)NCCc4ccccn4)cc3o2)cc1OC — higher, -1.86%
- COc1ccc(NC(=O)C2CCCCN2S(=O)(=O)c2ccc(F)cc2)cc1 (stereo not drawn) — higher, -16.5%
- O=C(Nc1cc(Sc2nc3ccccc3s2)cc([N+](=O)[O-])c1)c1ccccc1 — higher, 9.36%
- Cc1ccc2c(c1)c(=O)c(Br)c(C)n2Cc1ccccc1 — higher, 10.1%
- CCN(CC)CCCNC(=O)C1c2ccccc2C(=O)N(C)C1c1ccc(OC)cc1 (stereo not drawn) — higher, 6.8%
- CCc1nnc(NC(=O)CCN2C(=O)CCC2=O)s1 — higher, -8.3%
- COc1cc(C2=NOC(C(=O)N3CCOCC3)C2)cc(OC)c1OC (stereo not drawn) — higher, 15.1%
- COC(=O)c1ccccc1N=Nc1c(C)n[nH]c1C — higher, 4.65%
- CC(=O)Nc1ccc(OCc2ccc3c(c2)OCO3)cc1 — higher, 1.79%
- Nc1ccccc1C(=O)NCCCN1CCOCC1 — higher, 15.6%
- COC(=O)CNC(=O)CSc1nc2sccc2c(=O)n1-c1ccccc1 — higher, 6.29%
- O=C(O)C1C2C=CC(C2)C1C(=O)Nc1nccs1 (stereo not drawn) — higher, 15.3%
- O=C(Nc1ccccc1C(=O)NCCCN1CCOCC1)c1ccc(F)cc1F — higher, 0.91%
- CCCn1c(=NC(=O)c2c(-c3c(F)cccc3Cl)noc2C)c(C(=O)OCC)cc2c(=O)n3ccccc3nc21 — higher, 5.26%
- COc1ccc(NC(=S)N(C(C)C)C2CCN(C(C)C)CC2)cc1Cl — higher, 0.307%
- CSc1ccc(C(=O)C2CCCN(Cc3cccn3-c3cccnc3)C2)cc1 (stereo not drawn) — lower, -65.1%
- CSc1nc(-c2ccccc2)cc(C(F)(F)F)c1C#N — higher, -0.323%
- COc1ccc(C2/C=C\CN(C(=O)c3ccccc3)[C@H](Cc3ccccc3)C(=O)N2Cc2ccc(F)cc2)cc1 (stereo partly drawn) — higher, 17%
- CCc1ccc2c(c1)Sc1ccccc1CC2N1CCN(C)CC1.CS(=O)(=O)O.O (stereo not drawn) — lower, -69%
- CCC(C)(C)NC(=O)c1ccc2c(c1)S(=O)(=O)c1ccccc1C2=O — higher, -16.8%
- CC(=O)NC12CC3CC(C)(C1)CC(NC(C)=O)(C3)C2 — higher, -11.4%
- Cc1ccc(NC(=O)CN(C)C(=O)COc2cc(F)ccc2[N+](=O)[O-])cc1 — higher, 20.3%
- O=C(NCc1ccc(F)cc1)C1CCCN1C(=O)Nc1ccc(F)cc1 (stereo not drawn) — higher, -3.52%
- CC(C)(C)C(=O)Nc1ccc(-c2cc3cc(Cl)ccc3o2)cc1 — higher, 8.12%
- O=C(NC(=O)c1ccc(Cl)c(Cl)c1)OC1CCS(=O)(=O)C1 (stereo not drawn) — higher, 0.478%
- COC(=O)C1CCCN1S(=O)(=O)c1ccc([N+](=O)[O-])cc1 (stereo not drawn) — higher, 11.5%
- CCc1noc(C)c1C(=O)N1CCCSC1=Nc1ccccc1OC — higher, -8.77%
- Cc1cc(/C=C2/C(=O)NN(c3ccccc3)C2=O)c(C)n1-c1cccc(O)c1 — higher, 3.64%
- CCC(=O)c1ccc(N2CCC(C)CC2)c(F)c1 — higher, 5.15%
